This note sets out measurements from the RNAGym collection of RNA variant scans (doi:10.7554/elife.90254).

The source gives no read counts; variants with many changes may rest on few reads.

First the molecules themselves.
B1: OR4K15 (parent)
chain: GUUAACGGUCAUAGGCCAUGGAAACUAGGAGCACCAUUUCGCUGCCAGUGAAGAAAUGAACAAAGAAAAUCUGGGCCAGGCAGGCAUCAAAAGAAAUAGUCUUGCGCUCAACCAGAAAGUCUGUAAUCAUUUUAAGGGUA

The variants in the series derive from B1. Kind of series: self-cleavage, relative activity (ratio to wild type); higher = more cleavage; in vitro, sequencing; the parent is a self-cleaving ribozyme.
GUUAACGGUCAUAGGCCAUGGGAACUGGGAGCACCAUUUCGCUGCCAGUGAAGAAAUGAACAAAGAAAAUCUGGGCCAGGCAGGCAUCAAAAGAAAUAGUCUUGCGCUCAACCAGAAAGUCUGUAAUCAUUUUAAAGGUA [A22G A27G G136A]: the self-cleavage was found to be 2.31.
To GUUAACGGUCAUAGGCCAUGGGAACUAGGAGCGCCAUUUCGCUGCCAGUGAAGAAAUGAGCAAAGAAAAUCUGGGCCAGGCAGGCAUCAAAAGAAAUAGCCUUGCGCUCAACCGGAAAGUCGGUAAUCAUUUUAGGGGUA [A22G A33G A60G U100C A114G U122G A135G] belongs 0.54.
Turning to GUUAACGGUCAUAGGCCAUGGGAACUAGGUGCACCAUUUCGCUGCCAGUGAAGAAAUGAACGAAGAGAAUCUGGGCCAGUCAGGCAUCAAAAGGAAUAGUCUUGCGCUCAACCAGAGAGUCUGUAAUCAUUUUAAGGGUA [A22G A30U A62G A67G G80U A94G A117G], the self-cleavage was 0.1.
For GUUAACGGUCAUAGGCCAUGGGAGCUAGGAGCACCAUUUCGCUGCCAGUGAAGAAAUGAACAAAGUAAAUCUGGGCCAGGCAGGCAUCAAAAGAAAUAGUCUUGCGCUCAACCAGAAGGUCUGUAAUCAUUUUAAGGGUA [A22G A24G A66U A118G] the value was 1.14.
For GUUAACGGUCAUAGGCCAUGGGAGCUAGGAGCACCGUUUCGCUGCCAGUGAAGAAAUGAACAAAGAAAAUCUGGGCCAGGCAGGCAUCAAAAGAAAUAGUCUUGCGCUCAACCAGAAAGUCUGUAAUCAUUUUAAGGGUA [A22G A24G A36G] the value was 2.22.
To GUUAACGGUCAUAGGCCAUGGGAACUAGGAGCACCCUUUCGCUGCCAGUGAAGAGAUGAACAAAGAAAAUCUGGGCCAGGCUGGCAUCAAAAGAAAUAGUCUUGCGCUCAACCAGAAAGUCUGUAAUCAUUUUAAGGGUA [A22G A36C A55G A82U] belongs 0.36; to GUUAACGGUCAUAGGCCAUGGGAACUAGGUGCACCAUUUCGCUGCCAGUGAAGAAAUGGACAAAGAAAAUCUGGGCCAGGCAGGCAUCAAAAGAAAUGGUCUUGCGCUCAACCAGAAAGUCUGUAAUCAUUUUAAGGGUA [A22G A30U A59G A98G], 0.68; to GUUAACGGUCAUAGGCCAUGGGAACUAGGAGCGCCAUUUCGCUGCCAGUGAUGAAAUGAACAAAGAAAAUCUGGGCCAGGCAGGCAUCAAAAGAAAUAGUCUUGCGCUCACCCAGGAAGUCUGUAAUCAUUUGAAGGGUA [A22G A33G A52U A111C A116G U133G], 0.01.
On to GUUAACGGUCAUAGGCCAUGGGAACUAGGGGCACCAUUUCGCUGCCAGUGAAGAAAUGAACAAAGAAAAUCUGGGCCAGGCAGGCAUCAAAAGAAAUAGUCUUGCGCUCAACCAGAAAGUCUGUAAUCAUUUUAAGGGCA [A22G A30G U139C], for which the self-cleavage was found to be 0.72.
To GUUAACGGUCAUAGGCCAUGGGGACUAGGAGCACCAUUUCGCUGCCAGUGAAGAAAUGAACAAAGAAAGUCUGGGCCAGGCAGGCAUCAAAAGAAAUAGUCUUGCGCUCAACCAGGAAGUCUGUAAUCAUUUUAAGGGUA [A22G A23G A69G A116G] belongs 0.16; to GUUAACGGUCAUAGGCCAUGGGAACUAGGGGCACCAUUUCGCUGCCAGAGAAGAAAUGAACAAAGAAAAUCUGGGCCAGGCAGGCAUCAAAAGAAAUAGUCUUGCGCUCAACCAGAAAGUCUGUAAUCAUUUUAAGGGUA [A22G A30G U49A], 1.
To GUUAACGGUCAUAGGCCAUGGGAACUAGGAGCCCCAUUUCGCUGCCAGUGAGGAAAUGAACAAAGAAAAUCUGGGCCAGGCAGGCAUCAAAAGAAAUAGUCUCGCGCUCAACCAGAAAGUCUGUAAUCAUUUUGAGGGUA [A22G A33C A52G U103C A134G] belongs 0.35; to GUUAACGGUCAUAGGCCAUGGGGACUAGGAGCACCAUUUCGCUGCCAGUGAAGAAAUGAGCAAAGAAGAUCUGGGCCAGGCAGGCAUCAAAAGAAAUAGUCUUGCGCUCAACCAGAAAGUCCGUAAUCAUUUUAAGGGUA [A22G A23G A60G A68G U122C], 1.47.
To GUUAACGGUCAUAGGCCAUGGGAGCUAGGAGCACCAUUUCGCUGCCAGUGAAGAAAUGAACAAAGAAAAUCUGGGCCGGGCAGGCAUCAAAAGAAAUAGUCUUGCGCUCAACCAGAAAGUCUGUAAUCAUUUUAAGGGUA [A22G A24G A78G] belongs 0.26; to GUUAACGGUCAUAGGCCAUGGGAGCUAGGAGCACCAUUCCGCUGCCAGUGAAGAAAUGAACAAAGAAAAUCUGGGCCAGGCAGGCAUCAAAAGAAAUAGUCUUGCGCUCAACCAGAAAGUCUGUAAUCAUUUUAAGGGUA [A22G A24G U39C], 0.84.
For the variant GUUAACGGUCAUAGGCCAUGGGAACUAGGGGCACCAUUUCGCUGCCAGUGAAGAAAUGAAUAAAGAAAAUCUGGGCCAGGCAGGCAUCAAAAGAAAUAGUCUUGCGCUCAACCAGAAAGUCUGUAAUCAUUUUAAGGGUA [A22G A30G C61U], the self-cleavage came to 0.99.
In the case of GUUAACGGUCAUAGGCCAUGGGAGCUAGGAGCACCAUUUCACUGCCAGUGAAGAAAUGAACAAAGAAAAUCUGGGCCAGGCAGGCAUCAAAAGAAAUAGUCUUGCGCUCAACCAGAGAGUCUGUAAUCAUUUUAAGGGUA [A22G A24G G41A A117G], the self-cleavage is 1.66.
For GUUAACGGUCAUAGGCCAUGGGGACUAGGAGCACCAUUUCGCUGCCAGUGAAGAAAUGAACAAAGAAAAUCAGGGCCAGGCAGGCAUCAAAAGAAAUAGUCUUGCGCUCAACCAGAAAGUCUGUAAUCAUUUUAAGGGUA [A22G A23G U72A] the value was 0.42; for GUUAACGGUCAUAGGCCAUGGGGACUAGGAGCACCAUUUCGCUGCCAGUGAAGAAAUGAACGAAGAAGAUCUGGGCCAGGCAGGCAUCAAAAGAAAUAGUCUUGCGCUCAACCAGAAAGUCUGUAAUCAUUUUAAGGGUA [A22G A23G A62G A68G], 1.19.
On to GUUAACGGUCAUAGGCCAUGGGGACUAGGAGCACCAUUUCGCUGCCAGUGAAGAGAUGAACAAAGAAAAUCCGGGCCAGGCAGGCAUCAAAAGAAAUAGUCUUGCGCUCAACCAGAAAGUCUGUAAUCAUUUUAAGGGUA [A22G A23G A55G U72C], for which the self-cleavage came out at 0.33.
For GUUAACGGUCAUAGGCCAUGGGAACUGGGAGCACCAUUUCGCUGCCAGUGAAGAAAUGAACAAAGAAAAUCUGGGCCAGGCAGGCACCAAAAGAAAUAGUCUCGCGCUCAACCAGAAAGUCUGUAAUCAUUUUAAGGGUA [A22G A27G U87C U103C] the value was 0.16; for GUUAACGGUCAUAGGCCAUGGGAACUAGGAGCGCCAUUUCGCUGCCAGUGAAGAAAUGAACAAAGAAAAUCUGGGCCAGGCAGGCAUCAAAAGAAAUAGUCUUGCGCUCAACCAGAAAGUCUGUAAGCAUUUUAAGGGCA [A22G A33G U127G U139C], 1.61; for GUUAACGGUCAUAGGCCAUGGGAGCUAGGAGCACCAUUUCGCUGCCAGUGAAGAAAUGAACAAAGAAAAUCUGGGCCAGGCAGGCAUCAAAAGGAAUAGUCUUGCGCUCAACCAGAAAGUCUGUAAUCAUUUUAAGGGUA [A22G A24G A94G], 0.57.
Take GUUAACGGUCAUAGGCCAUGGGUACUAGGAGCACCAUUUCGCUGCCAGCGAAGAAAUGAACAAAGAAAAUCUGGGCCAGGCAGGCAUCAAAAGAAAUAGUCUUGCGCUCAACCAGAAAGUCUGUAAUCAUUUUAAGGGUA [A22G A23U U49C]: the self-cleavage was determined as 0.79.
For GUUAACGGUCAUAGGCCAUGGGAGCUAGGAGCACCAUUUCGCCGCCAGUGAAGAGAUGAACAAAGAAAAUCUGGGCCAGGCAGGCAUCAAAAGAAAUAGUCUUGCGCUCAACCAGAAAGUCUGUAAUCUUUUUAAGGGUA [A22G A24G U43C A55G A129U] the value was 1.48; for GUUAACGGUCAUAGGCCAUGGGAACUGGGAGCACCAUUUCGCUGCCAGUGAAGAAAUGAACAAAGAAAAUCUGGGCCAGGCAGGCAUCAAAAGAAGUAGUCUUGCACUCAACCAGAAAGUCUGUAAUCAUUUUAAGGGUA [A22G A27G A96G G106A], 0.03; for GUUAACGGUCAUAGGCCAUGGGUACUAGGAGCACCAUUUCGCUGCCAGUGAAGAAAUGAACAAAGAAAAUCUGGGCCAGGCAGGCAUCAAAAAAAAUAGUCUUGCGCUCAACCAGAAAGUCUGUAAUCAUUUUAAGGGUA [A22G A23U G93A], 1.23.
Turning to GUUAACGGUCAUAGGCCAUGGGAACUAGGAGCGCCAUUUCGCUGCCAGUGAAGAAAUGAACAAAGAAAAUCUGGGCCAGGCAGGCAUCAAAAGAAAUAGCCUUGCGCUCAACCAGAAAGUCUGUAAUCAUUUUAAGGGUA [A22G A33G U100C], the self-cleavage was 1.41.
Regarding GUUAACGGUCAUAGGCCAUGGGAACUAGGUGCACCAUUUCGCUGCCAGUGAAGAAGCGAACAAGGAAAAUCUGGGCCAGGCAGGCAUCAAAAGAAAUAGUCUUGCGCUCAACCAGAAAGUCUGUAAUCAUUUUAAGGGUA [A22G A30U A56G U57C A64G], the self-cleavage came out at 0.17.
For GUUAACGGUCAUAGGCCAUGGGAACUAGGGGCACCAUCUCGCUGCCAGUGAAGAAAUGAACAAAGAAAAUCUGGGCCAGGCAGGCAUCAAAAGAAAUAGUCUUGCGCUCAACCAGAAAGUCUGUAAUCAUUUUAAGGGUA [A22G A30G U38C] the value was 1.46; for GUUAACGGUCAUAGGCCAUGGGGACUAGGAGCACCAUUUCGCUGCCAGUGAAGAAAUGAACAAAGAAAAUCUGGGCCAGGCAGGCAUCAAAAGAAGUAGUCUUGCGCUCAACCAGAAAGUCUGUGAUCAUUUUAAGGGUA [A22G A23G A96G A125G], 0.34; for GUUAACGGUCAUAGGCCAUGGGAACUAGGAGCGCCAUUUCGCUGCCAGUGAAGAAAUGAACAGAGAAAAUCUGGGCCAGGCAGGCAUCAAAAGAAAUAGUCUUGCGCUCAACCGGAAAGUCUGUAACCAUUUUAAGGGUA [A22G A33G A63G A114G U127C], 0.13.
To GUUAACGGUCAUAGGCCAUGGGAACUAGGAGCGCCAUUUCGCUGCCAGUGAAGAAAUGAACAAAGAAAAUCUGGGCCAGGCAGGCAUCAAAAGAAAUAGUCUUGCGCUCAACCAGAAAGUCUGUAAUCAUUCUAAGGGUA [A22G A33G U132C] belongs 1.12; to GUUAACGGUCAUAGGCCAUGGGAACUAGGGGCACCAUUUCGCUGCCAGUGAAGAAAUGAACAAAGAAAAUCUGGGCCAGGCAGGCAUCAAAAGGAAUAGUCUUGCGCUCAACCAGAAAGUCUGUAAUCAUUUUAAGGGUA [A22G A30G A94G], 1.29; to GUUAACGGUCAUAGGCCAUGGGGACUAGGAGCACCAUUUCGCUGCCAGUGAAGAAAUGAACAAAGAAAAUCUGGGCCAGGCAGGCAUCAAAAGAAAUAGUCUUGCGCUCAACCAGAUAGUCUGUAAUCAUUUUAAGGGUA [A22G A23G A117U], 0.
To GUUAACGGUCAUAGGCCAUGGGGACUAGGAGCACCAUUUCGCUGCCAGUGAAGAAAUGAACAAAGAAAAUCUGGGCCAGGCAGGCAUCAAAAGAAAUAGUCUUGCGCUCAACCAGAAAGUCUGUAAUCAUUCUAAGGGUA [A22G A23G U132C] belongs 0.74; to GUUAACGGUCAUAGGCCAUGGGUACUAGGAGCACCAUUUCGCUGCCAGUGAAGAGAUGAACAAAGAAAAUCUGGGCCAGGCAGGCAUCAAAAGAAAUAGUCUUGCGCUCAACCAGAAAGUCUGUAAUCAUUUUAAGGGUA [A22G A23U A55G], 0.63.
For the variant GUUAACGGUCAUAGGCCAUGGGUACUAGGAGCACCAUUUCGCUGCCGGUGAAGAAAUGAACAAAGAAAAUCUGGGCCGGGCAGGCAUCAAAAGAAAUAGUCUUGCGCUCAACCAGAAGGUCUGUAAUCAUUUUAAGGGUA [A22G A23U A47G A78G A118G], the self-cleavage turned out to be 0.14.
With GUUAACGGUCAUAGGCCAUGGGAUCUAGGAGCACCAUUUCGCUGCCAGUGAAGAAAUGAACAAAGAAAAUCUGGGCCAGGCAGGCAUCAAAAGAAAUAGUCUUGCGCUCAACCAGAAAGUCUGUAAUCAUUUUAUGGGUA [A22G A24U A135U], the self-cleavage is 0.71.
To GUUAACGGUCAUAGGCCAUGGGAACUAGGAGCACCGUUUCGCUGCCAGUGAAGAAAUGAACAAAGAAAGUCUGGGCCAGGCAGGCAUCAAAAGAAAUAGUCUUGCACUCAACCAGAAAGUCCGUAAUCAUUUUAAGGGUA [A22G A36G A69G G106A U122C] belongs 0.01; to GUUAACGGUCAUAGGCCAUGGGAACUAGGAGCUCCAUUUCGCUGCCGGUGAAGAAAUGAACAAAGAAAAUCUGGGCCAGGCAGGCACCAAAAGAAAUAGUCUUGCGCUCAACCAGAAAGUCUGUAAUCAUUUUAAGGGUA [A22G A33U A47G U87C], 0.95.
